Results as given in the supplement of paper PMC4967469.
By IC50 is meant the dose at which the fit gives 50% viability; a fit beyond the top or the lowest dose is shown as a bound at that dose. For AUC the same curve is integrated over the 256-fold range of doses and scaled to a fraction; the more sensitive the line, the further below 1. For some assays here: A top dose marked as inferred comes from the curve model; the source does not state it.

Key:
Test in all cases: Viability of human cancer cell lines after 72 h of drug (GDSC screen)
[1] = compound: COc1cc2ncnc(Nc3ccc(F)c(Cl)c3)c2cc1OCCCN1CCOCC1 [Gefitinib]; conditions: top dose 0.5 µM
Procedure: (§1)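 Human cancer cell lines in 384-well plates, medium with 10% serum, drug for 72 h over a 256-fold dose range (nine 2-fold or five 4-fold steps up to the top dose). Adherent lines were fixed and stained with the nucleic acid dye Syto60, suspension lines read with resazurin; signal relative to control wells, capped at 0 and 100%. One two-parameter sigmoid per drug and line, fitted in a mixed model over all curves with the slope shared within a line.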

[2] = compound: N=C(N)NC(=N)NCCc1ccccc1 [Phenformin]; conditions: top dose 4000 µM; top dose inferred
Procedure: as §1

[3] = compound: CCC1=C[C@@H]2CN(C1)Cc1c([nH]c3ccccc13)[C@@](C(=O)OC)(c1cc3c(cc1OC)N(C)[C@H]1[C@@](O)(C(=O)OC)[C@H](OC(C)=O)[C@]4(CC)C=CCN5CC[C@]31[C@@H]54)C2 [Vinorelbine]; conditions: top dose 0.064 µM; top dose inferred
Procedure: as §1

[4] = compound: C=CC(=O)Nc1cc(NC(=O)c2ccc(C)c(NC(=O)c3ccno3)c2)cc(C(F)(F)F)c1 [QL-XI-92]; conditions: top dose 10.24 µM; top dose inferred
Procedure: as §1

[5] = compound: O=c1cc(CN2CCOCC2)occ1OCCCCCSc1ccnc2cc(C(F)(F)F)ccc12 [EHT 1864]; conditions: top dose 10 µM; top dose inferred
Procedure: as §1

[6] = compound: COc1cc2ncnc(Nc3cc(Br)c(O)c(Br)c3)c2cc1OC [WHI-P97]; conditions: top dose 10.24 µM; top dose inferred
Procedure: as §1

[7] = compound: COc1cc2nccc(Oc3ccc(NC(=O)C4(C(=O)Nc5ccc(F)cc5)CC4)cc3)c2cc1OC [XL-184]; conditions: top dose 5.12 µM; top dose inferred
Procedure: as §1

[8] = compound: CNCc1ccc(-c2[nH]c3cc(F)cc4c3c2CCNC4=O)cc1 [AG-014699]; conditions: top dose 5 µM; top dose inferred
Procedure: as §1

Cell Line | AUC [1] | IC50 [1] [µM] | AUC [2] | IC50 [2] [µM] | AUC [3] | IC50 [3] [µM] | AUC [4] | IC50 [4] [µM] | AUC [5] | IC50 [5] [µM] | AUC [6] | IC50 [6] [µM] | AUC [7] | IC50 [7] [µM] | AUC [8] | IC50 [8] [µM]
A2058 (melanoma, adherent) | 0.963 | > 0.5 | 0.835 | 2230 | 0.491 | 0.00379 | 0.93 | > 10.2 | 0.961 | > 10 | 0.99 | > 10.2 | 0.989 | > 5.12 | 0.934 | > 5
ABC-1 (lung adenocarcinoma, adherent) | 0.972 | > 0.5 | 0.695 | 999 | 0.564 | 0.00619 | 0.941 | > 10.2 | 0.895 | > 10 | 0.956 | > 10.2 | 0.911 | > 5.12 | 0.983 | > 5
ACHN (kidney, adherent) | 0.787 | 0.251 | 0.823 | 2790 | 0.832 | 0.0492 | 0.967 | > 10.2 | 0.921 | > 10 | 0.916 | > 10.2 | 0.935 | > 5.12 | 0.945 | > 5
AN3-CA (endometrium, adherent) | 0.985 | > 0.5 | 0.96 | > 4000 | 0.549 | 0.00551 | 0.976 | > 10.2 | 0.97 | > 10 | 0.969 | > 10.2 | 0.869 | > 5.12 | 0.984 | > 5
CFPAC-1 (pancreas, adherent) | 0.936 | > 0.5 | 0.981 | > 4000 | 0.688 | 0.0146 | 0.948 | > 10.2 | 0.983 | > 10 | 0.97 | > 10.2 | 0.962 | > 5.12 | 0.948 | > 5
DMS-53 (small cell lung carcinoma, adherent) | 0.988 | > 0.5 | 0.531 | 306 | 0.955 | > 0.064 | 0.988 | > 10.2 | 0.903 | > 10 | 0.988 | > 10.2 | 0.988 | > 5.12 | 0.955 | > 5
Daoy (medulloblastoma, adherent) | 0.971 | > 0.5 | 0.756 | 1250 | 0.607 | 0.00761 | 0.885 | 9.39 | 0.975 | > 10 | 0.976 | > 10.2 | 0.963 | > 5.12 | 0.95 | > 5
EFM-19 (breast, adherent) | 0.976 | > 0.5 | 0.868 | > 4000 | 0.547 | 0.00576 | 0.978 | > 10.2 | 0.952 | > 10 | 0.976 | > 10.2 | 0.901 | > 5.12 | 0.965 | > 5
EPLC-272H (lung squamous cell carcinoma, adherent) | 0.916 | > 0.5 | 0.418 | 145 | 0.486 | 0.00365 | 0.866 | > 10.2 | 0.961 | > 10 | 0.961 | > 10.2 | 0.842 | 4.32 | 0.966 | > 5
G-402 (soft tissue, adherent) | 0.975 | > 0.5 | 0.559 | 381 | 0.569 | 0.00658 | 0.883 | > 10.2 | 0.831 | 9.52 | 0.968 | > 10.2 | 0.808 | 3.78 | 0.859 | > 5
G-MEL (melanoma, adherent) | 0.961 | > 0.5 | 0.66 | 692 | 0.857 | 0.0509 | 0.876 | 10 | 0.936 | > 10 | 0.962 | > 10.2 | 0.96 | > 5.12 |  | 
H2722 (mesothelioma, adherent) | 0.984 | > 0.5 | 0.983 | > 4000 | 0.776 | 0.0305 | 0.97 | > 10.2 | 0.966 | > 10 | 0.95 | > 10.2 | 0.955 | > 5.12 | 0.973 | > 5
HCC70 (breast, adherent) | 0.928 | > 0.5 | 0.829 | 2420 | 0.647 | 0.0101 | 0.983 | > 10.2 | 0.967 | > 10 | 0.987 | > 10.2 | 0.975 | > 5.12 | 0.985 | > 5
HMV-II (melanoma, adherent) | 0.963 | > 0.5 | 0.691 | 975 | 0.533 | 0.00502 | 0.941 | > 10.2 | 0.96 | > 10 | 0.981 | > 10.2 | 0.964 | > 5.12 | 0.982 | > 5
HOP-92 (large cell lung carcinoma, adherent) | 0.984 | > 0.5 | 0.878 | > 4000 | 0.862 | > 0.064 | 0.984 | > 10.2 | 0.966 | > 10 | 0.984 | > 10.2 | 0.982 | > 5.12 | 0.96 | > 5
HSC-4 (head and neck, adherent) | 0.607 | 0.0676 | 0.835 | 3990 | 0.925 | > 0.064 | 0.978 | > 10.2 | 0.92 | > 10 | 0.961 | > 10.2 | 0.957 | > 5.12 | 0.902 | > 5
